According to US4169096A, “Antibiotic compounds” (priority 1977, dated 1979):
Values after ≈ are worked out from the molar mass of the structure shown.

Key:
aerobic organisms = assay: Antibacterial activity against aerobic bacteria (in words); assay type: cell-based; settings: such as S. aureus, E. coli and K. pneumoniae
[1] = test system: Clostridium chavoei A9561; assay: microbe, parasite or virus in culture

SMILES	activity against usual aerobic organisms (aerobic organisms)	MIC [1] [µg/mL]
COC(=O)C1C(C)OC2(C)CC(=O)C3OC12OC(C(C)/C=C(C)/C=C/C(=O)C1=C(O)CNC1=O)C3C (stereo not drawn) [Bu-2313B]	only moderate to weak activity	–
COC(=O)C1C(C)OC2(C)CC(=O)C3OC12OC(C(C)/C=C(C)/C=C/C(=O)C1=C(O)CN(C)C1=O)C3C (stereo not drawn) [Bu-2313A]	only moderate to weak activity	0.2 (≈ 0.386 µM)
